Measured values published in PubChem BioAssay AID1347120 (National Center for Advancing Translational Sciences (NCATS), 2019).
“And” between values parts separate entries of the source, which are not always exact repeats. Equal entries are not always repeated. The campaign covered roughly 390,000 compounds. About 930 (0.24%) were called active. The shares of active, inactive and inconclusive entries below differ from those in the screen. Calls come from the whole dose curve; as a rule, active = well fitted activation curve with a large enough effect; inconclusive = small, poorly fitted or top-dose-only effect; inactive = no such curve, though single readings can be large or run the other way. A potency beside an inconclusive call is a rough fit, not a confirmed value.
Potency is the fitted concentration of half-maximal effect; tags give direction and shape of the fitted curve.

Experiment: qHTS for Suppressors of FUS Proteinopathy: Primary screen using FUS-linked yeast assay; note: nearly all actives have a fitted effect of over 55% in size
Conditions: S. cerevisiae FUS-expressing, OD600, 24 h; Potency: growth rescue; series mostly up to 76.6 µM
Procedure, shortened: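 Toxicity suppression screen in FUS-yeast. Cells induced with 2% galactose, starting OD 0.005, treated 24hr at 30C with compounds at multiple final concentrations; growth by OD600.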
For N#Cc1ccc(Cn2ccc3ccc(-c4ccc5ccn(C(=O)C6CC6)c5c4)cc32)cc1, the Potency was inconclusive: 28.2 µM [activator, single point].
For CN(C)S(=O)(=O)c1cccc(NC(=O)C2Cc3ccccc3CN2C(=O)c2ccccc2)c1 (configuration not stated), the Potency was inconclusive: 20 µM [activator, partial curve, poor fit].
For OC(CC1CC12c1ccccc1-c1ncccc12)(c1ccccc1)c1ccccc1 (configuration not stated), the Potency was inconclusive: 20 µM [activator, single point].
In the case of CCCCCCn1c(=O)n2n(c1=O)[C@@H]1CN(S(=O)(=O)c3ccc(C)cc3)C[C@]1(O)[C@@H](OC(=O)Nc1c(C)noc1C)C2, the Potency is reported as inconclusive: 35.5 µM [activator, single point].
In the case of COC(=O)[C@]12C[C@H](CC(=O)N3CCCCC3)C(=O)N(Cc3ccc(Cl)cc3Cl)C1=C[C@H](C(C)(C)C)O[C@@H]2C, the Potency is reported as inconclusive: 17.8 µM [activator, partial curve, poor fit].
In the case of Cc1ccc(-n2c(SCC(=O)NCC3CCCO3)nc3n[nH]c(C)c3c2=N)cc1Cl (configuration not stated), the Potency is reported as inconclusive: 11.2 µM [activator, partial curve].
In the case of Cc1ccc2cc(CN(Cc3ccc4c(c3)OCO4)Cc3nnnn3Cc3ccco3)c(=O)[nH]c2c1C, the Potency is reported as inconclusive: 25.1 µM [activator, partial curve].
With C#CCOCCOCCOCCNc1nc(N2CCN(C(=O)CCCCCCCCCCNC(=O)[C@@H](CCSC)n3cc(CCO)nn3)CC2)nc(N2CCN(C(=O)CCCCCCCCCCNC(=O)[C@@H]([C@H](C)O)n3cc(C)nn3)CC2)n1 the Potency was active: 7.94 µM.
For Cc1ccccc1NC(=O)c1ccc(Cl)c(S(=O)(=O)N2CCCCCC2)c1, the Potency was inconclusive: 12.6 µM [activator, partial curve, poor fit].
In the case of Cc1ccc(N=C2NC(=O)/C(=C/c3cccn3C)S2)cc1C, the Potency is reported as “inactive”.
In the case of O=C(N/N=C/c1cccnc1)c1ccc(S(=O)(=O)N2CCCCCC2)cc1, the Potency is reported as inconclusive: 10 µM [activator, partial curve].
In the case of CCc1ccc(-c2cc(C)no2)cc1S(=O)(=O)N1CCN(c2ccccc2OC)CC1, the Potency is reported as inconclusive: 31.6 µM [activator, partial curve, poor fit].
In the case of CCc1ccc(CNC(=O)c2c(C)oc3ncn(CC(C)C)c(=O)c23)cc1, the Potency is reported as “inactive”.
For CCCCC1=CC2=C(c3ccco3)C(=O)C(C)(OC(=O)c3ccc(OC)cc3)C(=O)C2=CN1C(CO)CO (configuration not stated), the Potency was inconclusive: 50.1 µM [activator, single point].
For O=C(c1ccccc1)c1nc2ccccc2n(CCCn2c(=O)c(C(=O)c3ccccc3)nc3ccccc32)c1=O, the Potency was inconclusive: 5.62 µM [activator, partial curve, poor fit].
With O=C(O)c1cccc(-n2cccc2C=C2C(=O)c3ccccc3C2=O)c1 the Potency was “inactive”.
With CCOCCCN(Cc1ccco1)C(=O)c1cc2c(=O)[nH]c3ccc(C)cc3c2s1 the Potency was inconclusive: 22.4 µM [activator, partial curve, poor fit].
In the case of Cc1cc(C)nc(NS(=O)(=O)c2ccc(NC(=O)C3(c4ccc([N+](=O)[O-])cc4)CCCC3)cc2)n1, the Potency is reported as inconclusive: 31.6 µM [activator, single point].
For Cc1ccc(C(=O)N2CC(=O)Nc3ccc(F)cc3C2c2ccc(F)cc2)cc1 (configuration not stated), the Potency was inconclusive: 14.1 µM [activator, partial curve, poor fit].
With CCCCN(C)CCCNC(=O)Cn1ncc2c3ccccc3n(Cc3cc(C)ccc3C)c2c1=O the Potency was “inactive”.
With Cc1cnc(C(=O)OCC(=O)N2CCN(S(=O)(=O)c3ccc(Cl)cc3)CC2)cn1 the Potency was inconclusive: 50.1 µM [activator, single point].
For CCC(=O)N1c2ccc(S(=O)(=O)CCC(=O)Nc3ccc(Br)c(C)c3)cc2CC1C (configuration not stated), the Potency was “inactive”.
In the case of CN(C)S(=O)(=O)N1CCCC(C(=O)c2ccc(-c3ccccc3)c(F)c2)C1 (configuration not stated), the Potency is reported as inconclusive: 15.8 µM [activator, single point].
With COc1ccc(S(=O)(=O)N2C[C@H]3CON(C)[C@H]3C[C@H]2c2ccc(-c3cc4ccccc4o3)cc2)cc1 the Potency was inconclusive: 50.1 µM [activator, single point].
With CCOc1ccc(C(=O)OC(C)C(=O)N2CCN(Cc3ccccc3)CC2)cc1 (configuration not stated) the Potency was “inactive”.
For CCOC(=O)c1ccc(NC(=O)CSCc2ccco2)cc1, the Potency was inconclusive: 50.1 µM [activator, single point].
With COC(=O)N1CCCCC1c1cc(C(=O)NCc2ccc(Cl)c(Cl)c2)no1 (configuration not stated) the Potency was inconclusive: 25.1 µM [activator, single point].
With Cc1ccc(C2CCN(C(=O)Nc3ccc(F)cc3)C2)cc1 (configuration not stated) the Potency was “inactive”.
With C#CCOCCOCCOCCNc1nc(N2CCN(C(=O)CCCCCCCCCCNC(=O)[C@H](CCCCN)n3cc(CCCC(=O)O)nn3)CC2)nc(N2CCN(C(=O)CCCCCCCCCCNC(=O)[C@H](CCCCN)n3cc(CCCC(=O)O)nn3)CC2)n1 the Potency was inconclusive: 1.78 µM [activator, partial curve, poor fit].
In the case of Cc1ccc(C)c(N2CCN(C(=O)c3cc(S(=O)(=O)N4CCCCCC4)cn3C)CC2)c1, the Potency is reported as inconclusive: 28.2 µM [activator, single point].
With CC(Nc1cc(N2CCN(S(C)(=O)=O)CC2)ccc1[N+](=O)[O-])c1ccccc1 (configuration not stated) the Potency was inconclusive: 5.01 µM [activator, partial curve, poor fit].
For Cc1cc(C(F)(F)F)c(C#N)c(SCC(=O)NC(C)(C)C)n1, the Potency was inconclusive: 50.1 µM [activator, single point].
With CCCC1(C(=O)OCC)NC(c2ccc(N(C)C)cc2)C2C(=O)N(c3ccccc3)C(=O)C21 (configuration not stated) the Potency was inconclusive: 50.1 µM [activator, single point].
With O=C(Nc1ccccc1)N1CCN(c2ccccc2)CC1 the Potency was “inactive”.
For CN(C)CCCN(C(=O)c1ccc(S(=O)(=O)N(C)Cc2ccccc2)cc1)c1nc2cc3c(cc2s1)OCO3, the Potency was inconclusive: 44.7 µM [activator, partial curve, poor fit].
With CCCCC[C@H]1CN(CCc2ccccc2)C(=O)[C@@H]1CC(=O)NCc1ccc(OC)cc1 the Potency was inconclusive: 50.1 µM [activator, single point].
For CC(/C=N/NC(=O)c1nnn(-c2nonc2N)c1C(C)C)=C\c1ccco1, the Potency was inconclusive: 28.2 µM [activator, single point].
For O=C(CC1C=CCC1)OCCN1CCN(C2CN(Cc3cn(Cc4ccccc4Cl)nn3)S(=O)(=O)C2)CC1 (configuration not stated), the Potency was “inactive”.
With CCCCN1CC(=O)N2[C@H]3c4cc(Cl)ccc4OC[C@@H]3[C@H](c3ccccc3)[C@]2(C)C1=O the Potency was inconclusive: 31.6 µM [activator, single point].
In the case of CCC(=O)N1CCC2(CC1)Oc1ccc(Cl)cc1C(=O)C21CC(c2ccc(Cl)cc2)=NO1 (configuration not stated), the Potency is reported as inconclusive: 12.6 µM [activator, partial curve].
In the case of O=C(c1cc(-n2cnnc2)ccc1Cl)N1CCN(c2nc(-c3ccccc3)cs2)CC1, the Potency is reported as inconclusive: 22.4 µM [activator, partial curve].
With Cc1ccn2cc(C(=O)Nc3cccc(C(=O)NC4CC4)c3)nc2c1 the Potency was “inactive”.
With Cc1cccc(N2CCN(C(=O)c3ccc4c(c3)c(C)c(C)n4C)CC2C)c1 (configuration not stated) the Potency was inconclusive: 39.8 µM [activator, single point] and inconclusive: 31.6 µM [activator, single point].
In the case of Cc1ccc(C(=O)N2CCN(C3c4cccc5cccc(c45)C3NS(=O)(=O)c3ccccc3)CC2)cc1 (configuration not stated), the Potency is reported as inconclusive: 22.4 µM [activator, single point].
For COc1cccc(CNC(=O)Cn2c(-c3ccccc3)cc(C(C)=O)c2C)c1, the Potency was “inactive”.
With O=C(c1ccc(CS(=O)(=O)c2c(Cl)cccc2Cl)o1)N1CCN(c2ccccc2)CC1 the Potency was active: 28.2 µM.
With CCc1nc2ccc(C(=O)Nc3cccc(OC)c3)cn2c1N(CC)Cc1cccc(Br)c1 the Potency was inconclusive: 31.6 µM [activator, single point].
For CCCc1cc(=O)oc2cc(C)c(CN3CCCC3)c(O)c12, the Potency was inconclusive: 20 µM [activator, partial curve, poor fit].
For COC(=O)CCC(C)C1CCC2C3CCC4CC(O)CCC4(C)C3CC(O)C12C (configuration not stated), the Potency was inconclusive: 25.1 µM [activator, partial curve, poor fit].
In the case of COc1ccc(N2C3=C(CC4=C2CCCC4=O)C(=O)CCC3)cc1, the Potency is reported as inconclusive: 12.6 µM [activator, partial curve].
For COc1cc(N/N=C/c2ccc(N(C)C)cc2)ncn1, the Potency was “inactive”.
With CC(C)(C)c1ccc(C(=O)N/C(=C\c2cccs2)C(=O)NCc2ccco2)cc1 the Potency was inconclusive: 50.1 µM [activator, single point].
In the case of O=C(N/N=C/c1ccco1)c1cccc(S(=O)(=O)Nc2ccccc2Cl)c1, the Potency is reported as inconclusive: 25.1 µM [activator, single point].
For COc1ccc(NC(=O)CN(C)C(=O)c2cc(-c3ccc(Cl)cc3)nc3ccccc23)cc1, the Potency was “inactive”.
For COc1ccc(CNC(=O)CN2C(=O)COc3ccc(S(=O)(=O)N4CCOCC4)cc32)cc1, the Potency was inconclusive: 28.2 µM [activator, partial curve].
For C=CCn1c(N)c(C(=O)Nc2ccc(C)c(C)c2)c2nc3ccccc3nc21, the Potency was “inactive”.
In the case of Cc1ccc(NC(=O)Cc2nc(-c3c[nH]c(C(=O)N4CCCC4)c3)cs2)c(C)c1, the Potency is reported as inconclusive: 25.1 µM [activator, single point].
